# Measurements: publication PMC4336329 (PLoS ONE, 2015)
# About 2,200 (0.71%) of roughly 310,000 compounds showed an effect of 50% or more. Effects have a minus sign here. The list shows a part of the results.
# Target: human ether-à-go-go-related gene (hERG) potassium channel (human, UniProt Q12809)
# Assay: primary screen, population patch clamp on CHO cells stably expressing hERG
# Sequence of human ether-à-go-go-related gene (hERG) potassium channel (Q12809 whole entry, looked up): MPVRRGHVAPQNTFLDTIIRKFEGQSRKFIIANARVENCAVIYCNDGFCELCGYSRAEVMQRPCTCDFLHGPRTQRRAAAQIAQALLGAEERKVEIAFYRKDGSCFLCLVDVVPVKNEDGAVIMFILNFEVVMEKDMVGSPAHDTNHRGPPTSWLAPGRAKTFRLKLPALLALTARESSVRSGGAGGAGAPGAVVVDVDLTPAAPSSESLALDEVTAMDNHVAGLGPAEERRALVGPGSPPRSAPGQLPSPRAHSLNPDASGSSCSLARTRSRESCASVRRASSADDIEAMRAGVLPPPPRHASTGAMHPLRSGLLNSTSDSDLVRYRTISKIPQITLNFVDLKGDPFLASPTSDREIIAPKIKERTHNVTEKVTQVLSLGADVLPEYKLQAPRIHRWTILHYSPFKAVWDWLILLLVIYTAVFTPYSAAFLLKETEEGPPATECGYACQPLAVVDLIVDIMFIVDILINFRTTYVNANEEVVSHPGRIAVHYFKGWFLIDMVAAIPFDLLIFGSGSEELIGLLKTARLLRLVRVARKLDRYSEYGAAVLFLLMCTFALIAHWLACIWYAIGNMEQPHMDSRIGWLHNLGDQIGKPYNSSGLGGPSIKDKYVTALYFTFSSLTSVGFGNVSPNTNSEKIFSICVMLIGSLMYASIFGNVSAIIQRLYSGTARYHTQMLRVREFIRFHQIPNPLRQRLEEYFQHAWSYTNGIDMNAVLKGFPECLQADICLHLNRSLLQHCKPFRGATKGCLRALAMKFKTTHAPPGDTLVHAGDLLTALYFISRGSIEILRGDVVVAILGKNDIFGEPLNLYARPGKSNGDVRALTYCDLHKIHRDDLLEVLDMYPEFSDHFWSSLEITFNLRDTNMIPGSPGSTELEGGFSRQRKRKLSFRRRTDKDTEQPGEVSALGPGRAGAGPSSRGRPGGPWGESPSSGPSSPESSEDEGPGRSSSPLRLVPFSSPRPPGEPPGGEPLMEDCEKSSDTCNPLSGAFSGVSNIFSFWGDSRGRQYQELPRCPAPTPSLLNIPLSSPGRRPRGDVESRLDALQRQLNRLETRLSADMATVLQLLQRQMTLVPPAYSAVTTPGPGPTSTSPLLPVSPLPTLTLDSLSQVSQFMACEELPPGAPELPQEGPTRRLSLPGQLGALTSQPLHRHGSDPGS
row,Compound,"hERG current change (%, negative = inhibition) at 1uM"
1,COc1ccccc1C(=O)Nc1ccc2c(c1)nc(CN1CCN(C(C)=O)CC1)n2C,-19.7%
2,Cc1c(CCC(=O)O)c(=O)oc2c(C)c3occ(-c4ccc(Br)cc4)c3cc12,14.8%
3,Cc1nc2ccccc2c(=O)n1/N=C/c1ccccc1O,7.95%
4,CCO[C@@H]1OC(C(=O)NCc2nc3ccccc3[nH]2)=C[C@H](C)[C@H]1CCCO,1.7%
5,CCOC(=O)c1[nH]c(C)c(C(=O)Nc2ccccc2F)c1C,-0.649%
6,NC(=O)N/N=C/c1ccc(-c2ccc([N+](=O)[O-])cc2)o1,5.21%
7,O=C(CSc1ccccn1)Nc1cccc(S(=O)(=O)N2CCCC2)c1,-1.52%
8,Cc1ccc(C(=O)OC(C)C(=O)NC2CCCCC2C)s1 (stereo not drawn),2.91%
9,O=C(O)c1cccc(COc2ccccc2Cl)c1,4.17%
10,COc1ccc(C(=O)NCC(=O)N/N=C/C(C)=C/c2ccccc2)cc1OC,-4.74%
11,Cc1nc2ccc([N+](=O)[O-])cc2c(=O)n1Cc1ccc([N+](=O)[O-])cc1,-76.5%
12,COc1ccc(N2CCC(CNS(=O)(=O)c3cccc(C(F)(F)F)c3)C2)cc1 (stereo not drawn),4.38%
13,CCOC(=O)CN1C(=O)N[C@@H](c2ccccc2)C(C(C)=O)=C1C,11.7%
14,CC(=O)Nc1cc(NC(C)=O)cc(C(=O)OCC(=O)N2CC(C)OC(C)C2)c1 (stereo not drawn),0.114%
15,CC(=O)c1c2c3c(c(Br)ccc3n(C)c1=O)C(=O)c1ccccc1-2,15.6%
16,O=C(c1ccc(Cl)c(Cl)c1)N1CCC(=O)N(C(COCc2cccc(Cl)c2)Cc2ccccc2)CC1 (stereo not drawn),8.49%
17,Cc1ccccc1N1C(=O)c2ccccc2N2C(=O)c3ccccc3C12 (stereo not drawn),-1.93%
18,O=C1Nc2ccccc2C12OC1CCCCC1O2 (stereo not drawn),-4.13%
19,CCc1ccc(C(=O)COC(=O)CNC(=O)CNC(=O)Cc2ccccc2)cc1,14%
20,Cc1ccc(CNC(=O)c2cn(C)c(=O)c3c2c2ccccc2n3C)o1,12.2%
21,CC(=O)Nc1ccc2c(c1)nc(CCN1CCC(C)CC1)n2C,12.4%
22,CCCCCCCn1c(=N)n(CC(O)c2ccco2)c2ccccc21.Cl (stereo not drawn),-76.8%
23,CC(C)NC(=O)c1ccccc1NC(=O)C1COc2ccccc2O1 (stereo not drawn),27%
24,CCN(CC)c1ccc(/C=C2\NC(=O)NC2=O)cc1,5.67%
25,CCOC(=O)c1cccc(NC(=O)Cn2c(CC(=O)NC)nc3ccccc32)c1,1.54%
26,O=C(Nc1cccc(Cn2cccn2)c1)c1cc2c(s1)CCCC2,-2.29%
27,c1ccc2c3c([nH]c2c1)C1(CCNCC1)NCC3,0.772%

row,Compound,"hERG current change (%, negative = inhibition) at 1uM"
1,CCCCC[n+]1ccn(C2=C([O-])c3ccccc3C(=O)/C2=N\S(=O)(=O)c2ccc(Cl)cc2)c1,6.9%
2,CC(C)CN1C(=O)c2ccc(C(=O)Nc3nccs3)cc2C1=O,3.39%
3,CC(=O)N1CCc2c(sc(NC(=O)C3CCCN3S(=O)(=O)c3cccs3)c2C(N)=O)C1 (stereo not drawn),15.9%
4,CCOC(=O)NC(=O)CSc1nc(-c2ccc(C)c(C)c2)cn1-c1ccccc1,7.91%
5,CCn1c(-c2ccccc2)csc1=Nc1ccc(S(=O)(=O)O)cc1,14.5%
6,O=C(Cc1csc(-c2ccccc2)n1)Nc1ccc(C(F)(F)F)cc1,5.33%
7,Cn1c(SCC(=O)N2CCN(c3ccccc3)CC2)nnc1-c1cc2ccccc2o1,-1.8%
8,COc1cccc(C(=O)NNC2=C(C(=O)C(F)(F)F)CCC2)c1,6.8%
9,O=C(O)CSc1nnc(COc2cccc3ccccc23)n1Cc1ccccc1,16.3%
10,O=C(Cn1c(C(F)(F)F)nc2ccccc21)c1ccc(F)cc1,12.1%
11,COc1ccc(S(=O)(=O)Nc2ccc(S(=O)(=O)N3CCCC3)cc2)cc1,4.04%
12,COc1ccc(NC(=O)/C(C#N)=C\c2ccc(-c3cc(C(=O)O)ccc3C)o2)cc1,11.5%
13,Br.c1ccc(NC2=NCCCS2)cc1,2.35%
14,CC(C)COC(=O)Nc1nnc(SCc2ccccc2F)s1,7.02%
15,CC(=O)c1ccc(N2CCN(C(=O)C(=O)c3cn(CC(=O)N4CCCCCC4)c4ccccc34)CC2)cc1,-4.98%
16,CC(=O)Nc1sc(N/N=C\c2ccc(O)cc2)nc1-c1cccs1,8.62%
17,Cc1ccccc1NC(=O)/C=C/c1cccc(C(F)(F)F)c1,8.04%
18,O=C(Nc1cccc2ccccc12)N1CCN(c2ccc(F)cc2)CC1,9.05%
19,COc1ccc(C(=O)CN2C(=O)NC3(CCCCCC3)C2=O)cc1,7.85%
20,Brc1ccc(-c2nnc3c4ccccc4nc(N4CCOCC4)n23)cc1,2.14%
21,O=C(Nc1ccc(Cl)cc1)[C@@H]1[C@@H]2C(=O)N(c3ccc(Cl)cc3Cl)C(=O)[C@@H]2[C@H]2C=CC=NN21,1.63%
22,O=C(O)c1cccc(S(=O)(=O)N(Cc2ccccc2)c2cccc(C(F)(F)F)c2)c1,7.65%
23,CC(C)c1ccc(C2c3[nH]c4ccccc4c3C[C@H]3C(=O)N(c4ccccc4C(=O)N4CCC[C@H]4C(=O)O)C(=O)N23)cc1 (stereo partly drawn),7.2%
24,CCc1ccc(OCC(=O)NC(NC(=S)Nc2ccccc2OC)C(Cl)(Cl)Cl)cc1 (stereo not drawn),8.97%
25,Cc1ccc(-n2nnnc2SCC(=O)c2cc(C)n(-c3cc(C)on3)c2C)c(C)c1,4.54%
26,COc1ccc(CCNc2ncnc3c2[nH]c2cc(OC)c(OC)cc23)cc1OC,11%
27,Cc1ccc(C)c(NC(=S)NC(NC(=O)Cc2ccccc2)C(Cl)(Cl)Cl)c1 (stereo not drawn),10.9%
